This note sets out measurements from the supplement of paper PMC10037445.

Test [1] relates to RAW-Dual. In words: IRF Lucia reporter activity, fold change vs agonist alone; cytotoxicity flag (confluency mask): not cytotoxic; higher = enhanced IRF activity. The method in brief:
(§1)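 Library stock was pin-tooled at 50 nL into 384-well plates of RAW-Dual macrophages (50,000 cells/well, DMEM), followed 1 h later by a PRR agonist, and the cells were kept at 37 °C, 5% CO2. Supernatant collected after 20 hours was read for IRF by QuantiLuc luminescence and for NF-κB by QuantiBlue absorbance at 620 nm. Reporter activity is fold change over agonist-alone wells, and a well counted as cytotoxic when its IncuCyte confluency was below 70% of agonist controls in both mask sets.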

Test [2] deals with RAW-Dual. Put plainly: IRF Lucia reporter activity, fold change vs agonist alone; higher = enhanced IRF activity. The note with it: agonist: MPLA (TLR4) […]. The method in brief: as §1
Test [3] has as its system RAW-Dual. In words: IRF Lucia reporter activity, fold change vs agonist alone; cytotoxicity flag (confluency mask): cytotoxic (confluency <70% of control); higher = enhanced IRF activity. A digest of the protocol:
as §1

[4] abbreviates: agonist: 3'3'-cGAMP (STING) 10 ug/mL.
Setting [5] is: library stock concentration (final ~1000-fold dilution): 10 mM, cytotoxicity flag (confluency mask): not cytotoxic.
Where [6] appears, read: library stock concentration (final ~1000-fold dilution): 10 mM, cytotoxicity flag (confluency mask): cytotoxic (confluency <70% of control).

SMILES strings stand for the structures. Several values for one entry are separate records, joined by “and”; a condition that tells them apart may be missing. Identical values can stand only once. ± gives the standard deviation of the averaged measurements. In all, about 2,900 compounds were measured (“IRF Lucia reporter activity, fold change vs agonist alone”: median about 0.9, highest 2% from about 2.8 on). This is one part of the list.

As to `CN1CCCC(n2nc(Cc3ccc(Cl)cc3)c3ccccc3c2=O)CC1.Cl` (centres undefined) (library stock concentration (final ~1000-fold dilution): 10 mM), the “IRF Lucia reporter activity” value with RAW-Dual [1] (setting [4]) turned out to be 0.982; with RAW-Dual [1] (agonist: LPS (TLR4) 0.1 ug/mL), 1.62.

Turning to `CN1CCCC(n2nc(Cc3ccc(Cl)cc3)c3ccccc3c2=O)CC1.Cl` (centres undefined), the “IRF Lucia reporter activity” value in the test with RAW-Dual [2] (setting [5]) came out at 1.12. `CN(C)CCCN1c2ccccc2Sc2ccccc21.Cl` (library stock concentration (final ~1000-fold dilution): 10 mM): the “IRF Lucia reporter activity” value with RAW-Dual [1] (setting [4]) worked out at 0.728; in the test on RAW-Dual [1] (agonist: LPS (TLR4) 0.1 ug/mL), 1.08. Turning to `CN(C)CCCN1c2ccccc2Sc2ccccc21.Cl`, in the test with RAW-Dual [2] (setting [5]), the “IRF Lucia reporter activity” value is 1.49. Turning to `CN(C)C(=O)c1cc2cnc(Nc3ccc(N4CCNCC4)cn3)nc2n1C1CCCC1` (library stock concentration (final ~1000-fold dilution): 10 mM), the “IRF Lucia reporter activity” value in the test on RAW-Dual [1] (setting [4]) is 0.748; in the test with RAW-Dual [1] (agonist: LPS (TLR4) 0.1 ug/mL) it was 0.74. For the compound `CN(C)C(=O)c1cc2cnc(Nc3ccc(N4CCNCC4)cn3)nc2n1C1CCCC1`, the “IRF Lucia reporter activity” value with RAW-Dual [2] (setting [5]) is 1.03. Still for that read-out and setting: the result for `C=CC(C)(O)CCC=C(C)C` (centres undefined) reads 1.09.

Consider `C=CC(C)(O)CCC=C(C)C` (centres undefined) (library stock concentration (final ~1000-fold dilution): 10 mM), for which the “IRF Lucia reporter activity” value in the test on RAW-Dual [1] (setting [4]) stood at 1.01; in the test on RAW-Dual [1] (agonist: LPS (TLR4) 0.1 ug/mL), 1.3. In the case of `CC(C)CC(NC(=O)CNC(=O)c1cc(Cl)ccc1Cl)B1OC(=O)CC(CC(=O)O)(C(=O)O)O1` (centres undefined), in the test on RAW-Dual [2] (setting [5]), the “IRF Lucia reporter activity” value worked out at 1.09.

As to `CC(C)CC(NC(=O)CNC(=O)c1cc(Cl)ccc1Cl)B1OC(=O)CC(CC(=O)O)(C(=O)O)O1` (centres undefined) (library stock concentration (final ~1000-fold dilution): 10 mM), the figures for the “IRF Lucia reporter activity” value with RAW-Dual [1] (setting [4]) and in the test with RAW-Dual [1] (agonist: LPS (TLR4) 0.1 ug/mL) were 1.05 and 1.29, respectively. On the same counts, the results for `Cc1cc(Nc2cc(CN3CCOCC3)c3nc(C)c(Cc4ccc(Cl)cc4F)n3n2)[nH]n1` (library stock concentration (final ~1000-fold dilution): 10 mM) are 0.996 and 1.43. For the compound `Cc1cc(Nc2cc(CN3CCOCC3)c3nc(C)c(Cc4ccc(Cl)cc4F)n3n2)[nH]n1`, the “IRF Lucia reporter activity” value in the test on RAW-Dual [2] (setting [5]) was 1.08. Turning to `CN1CCN(c2ccc(Nc3cc(-c4cccc(-n5ccc6cc(C7CC7)cc(F)c6c5=O)c4CO)cn(C)c3=O)nc2)CC1`, in the test on RAW-Dual [2] (setting [5]), the “IRF Lucia reporter activity” value stood at 1.01.

Regarding `CN1CCN(c2ccc(Nc3cc(-c4cccc(-n5ccc6cc(C7CC7)cc(F)c6c5=O)c4CO)cn(C)c3=O)nc2)CC1` (library stock concentration (final ~1000-fold dilution): 10 mM), the entries for the “IRF Lucia reporter activity” value in the test with RAW-Dual [1] (setting [4]) and with RAW-Dual [1] (agonist: LPS (TLR4) 0.1 ug/mL) were 0.999 and 2.24, respectively. The like results for `CN(CC1COCCO1)S(=O)(=O)Nc1ccc2ccc3ncc(-c4cnn(C)c4)cc3c(=O)c2c1` (centres undefined) (library stock concentration (final ~1000-fold dilution): 10 mM) were, in that order, 0.306 and 0.736. Regarding `CN(CC1COCCO1)S(=O)(=O)Nc1ccc2ccc3ncc(-c4cnn(C)c4)cc3c(=O)c2c1` (centres undefined), the “IRF Lucia reporter activity” value in the test on RAW-Dual [2] (setting [5]) was 0.63. On the same count and under the same terms, next, `Cc1c(C)c2c(c(C)c1O)CCC(C)(CCCC(C)CCCC(C)CCCC(C)C)O2` (centres undefined): 1.03. Take `Cc1c(C)c2c(c(C)c1O)CCC(C)(CCCC(C)CCCC(C)CCCC(C)C)O2` (centres undefined) (library stock concentration (final ~1000-fold dilution): 10 mM): the “IRF Lucia reporter activity” value with RAW-Dual [1] (setting [4]) worked out at 1.05; with RAW-Dual [1] (agonist: LPS (TLR4) 0.1 ug/mL) it was 1.48. Take `CN1CCN(C(c2ccccc2)c2ccccc2)CC1.Cl.Cl` (library stock concentration (final ~1000-fold dilution): 10 mM): the “IRF Lucia reporter activity” value stood at 0.942 in the test with RAW-Dual [1] (setting [4]) and 0.95 in the test with RAW-Dual [1] (agonist: LPS (TLR4) 0.1 ug/mL). As to `CN1CCN(C(c2ccccc2)c2ccccc2)CC1.Cl.Cl`, the “IRF Lucia reporter activity” value in the test on RAW-Dual [2] (setting [5]) was found to be 0.977. On to `C#CCNC1CCc2ccccc21.CS(=O)(=O)O` (centres undefined) (library stock concentration (final ~1000-fold dilution): 10 mM), for which the entries for the “IRF Lucia reporter activity” value in the test on RAW-Dual [1] (setting [4]) and in the test on RAW-Dual [1] (agonist: LPS (TLR4) 0.1 ug/mL) were 1.01 and 1.04, respectively. As to `C#CCNC1CCc2ccccc21.CS(=O)(=O)O` (centres undefined), the “IRF Lucia reporter activity” value in the test on RAW-Dual [2] (setting [5]) is 0.958. For the compound `CCn1cc(C(=O)O)c(=O)c2cc(F)c(N3CCN(C)CC3)cc21.CS(=O)(=O)O` (library stock concentration (final ~1000-fold dilution): 10 mM), the “IRF Lucia reporter activity” value in the test with RAW-Dual [1] (setting [4]) was 0.953; in the test with RAW-Dual [1] (agonist: LPS (TLR4) 0.1 ug/mL), 0.907. As for `CCn1cc(C(=O)O)c(=O)c2cc(F)c(N3CCN(C)CC3)cc21.CS(=O)(=O)O`, in the test on RAW-Dual [2] (setting [5]), the “IRF Lucia reporter activity” value stood at 0.723. For `C[C@@H]1O[C@@H](OC[C@H]2O[C@@H](Oc3c(-c4ccc(O)c(O)c4)oc4cc(O)cc(O)c4c3=O)[C@H](O)[C@@H](O)[C@@H]2O)[C@H](O)[C@H](O)[C@H]1O` (library stock concentration (final ~1000-fold dilution): 10 mM), the “IRF Lucia reporter activity” value in the test on RAW-Dual [1] (setting [4]) came to 0.0394; in the test on RAW-Dual [1] (agonist: LPS (TLR4) 0.1 ug/mL), 0.168. In the case of `Cc1nn(C)c(COc2ccc(N3CCN(S(=O)(=O)N(C)C)CC3)cc2)c1-c1cccc2c(CCCOc3cccc4ccccc34)c(C(=O)O)n(CCN3CCOCC3)c12` (library stock concentration (final ~1000-fold dilution): 2 mM), the “IRF Lucia reporter activity” value came out at 1.15 in the test on RAW-Dual [1] (setting [4]) and 0.908 in the test with RAW-Dual [1] (agonist: LPS (TLR4) 0.1 ug/mL). On to `C=Cc1c(C)c2cc3nc(cc4[nH]c(cc5nc(cc1[nH]2)C(C)=C5CCC(=O)O)c(CCC(=O)OC)c4C)C1(C)C3=CC=C(C(=O)OC)C1C(=O)OC` (centres undefined) (library stock concentration (final ~1000-fold dilution): 10 mM), for which the “IRF Lucia reporter activity” value in the test with RAW-Dual [3] (setting [4]) was 0.0182; in the test on RAW-Dual [3] (agonist: LPS (TLR4) 0.1 ug/mL), 0.0407.

With `C=Cc1c(C)c2cc3nc(cc4[nH]c(cc5nc(cc1[nH]2)C(C)=C5CCC(=O)O)c(CCC(=O)OC)c4C)C1(C)C3=CC=C(C(=O)OC)C1C(=O)OC` (centres undefined), the “IRF Lucia reporter activity” value with RAW-Dual [2] (setting [6]) was found to be 0.0336. Take `NC(=O)Nc1sc(-c2ccc(F)cc2)cc1C(N)=O`: the “IRF Lucia reporter activity” value with RAW-Dual [2] (setting [6]) came out at 0.396 ± 0.49.

On to `NC(=O)Nc1sc(-c2ccc(F)cc2)cc1C(N)=O` (library stock concentration (final ~1000-fold dilution): 10 mM), for which the “IRF Lucia reporter activity” value is 0.0273 and 0.0281 in the test on RAW-Dual [3] (setting [4]); 0.0315 and 0.0364 in the test on RAW-Dual [3] (agonist: LPS (TLR4) 0.1 ug/mL).

Consider `C/C=C1/C2C=C(C)CC1(N)c1ccc(=O)[nH]c1C2` (centres undefined) (library stock concentration (final ~1000-fold dilution): 2 mM), for which the “IRF Lucia reporter activity” value with RAW-Dual [1] (setting [4]) amounted to 1.07; in the test on RAW-Dual [1] (agonist: LPS (TLR4) 0.1 ug/mL), 0.902.

Consider `C/C=C1/C2C=C(C)CC1(N)c1ccc(=O)[nH]c1C2` (centres undefined), for which, in the test on RAW-Dual [2] (library stock concentration (final ~1000-fold dilution): 2 mM, cytotoxicity flag (confluency mask): not cytotoxic), the “IRF Lucia reporter activity” value came out at 1.39. With `CCCCCCCC(=O)NC(CN1CCCC1)C(O)c1ccc2c(c1)OCCO2` (centres undefined) (library stock concentration (final ~1000-fold dilution): 10 mM), the “IRF Lucia reporter activity” value worked out at 0.521 in the test on RAW-Dual [1] (setting [4]) and 1.22 with RAW-Dual [1] (agonist: LPS (TLR4) 0.1 ug/mL). For the compound `C[N+]1(C)C2CCC1CC(OC(=O)C(O)c1ccccc1)C2` (centres undefined) (library stock concentration (final ~1000-fold dilution): 10 mM), the “IRF Lucia reporter activity” value is 1.01 with RAW-Dual [1] (setting [4]) and 1.29 in the test on RAW-Dual [1] (agonist: LPS (TLR4) 0.1 ug/mL).

As to `C[N+]1(C)C2CCC1CC(OC(=O)C(O)c1ccccc1)C2` (centres undefined), the “IRF Lucia reporter activity” value with RAW-Dual [2] (setting [5]) worked out at 0.953.
